Results from PubChem BioAssay AID588591 (National Center for Advancing Translational Sciences (NCATS), 2011).
Where “and” joins values, the source holds several entries; their conditions need not be identical. Equal values may be shown once. The whole screen tested about 390,000 compounds, of which about 4,700 (1.2%) were called active. This list was built around the results that the source calls inconclusive (neither active nor inactive); the mix of calls is not that of the screen. The call rests on the fitted dose curve; in most records, active means well fitted inhibition curve with a large enough effect; inconclusive means small, poorly fitted or top-dose-only effect, or another doubt; inactive means no such curve, though single readings can be large or run the other way. Where the call is inconclusive, the potency comes from a doubtful curve fit. Some compounds were tested as several samples or in several runs, with calls that do not always agree.
Potency means the concentration at half of the fitted maximal effect; tags describe the fitted curve by direction and shape.

These compounds were tested against DNA polymerase eta (Homo sapiens) (UniProt Q9Y253) (assay: qHTS for Inhibitors of Polymerase Eta). Conditions: recombinant Pol eta, fluorescent DNA replication assay; series mostly up to 114 µM.
Sequence of UniProt Q9Y253 (Q9Y253 whole entry, looked up): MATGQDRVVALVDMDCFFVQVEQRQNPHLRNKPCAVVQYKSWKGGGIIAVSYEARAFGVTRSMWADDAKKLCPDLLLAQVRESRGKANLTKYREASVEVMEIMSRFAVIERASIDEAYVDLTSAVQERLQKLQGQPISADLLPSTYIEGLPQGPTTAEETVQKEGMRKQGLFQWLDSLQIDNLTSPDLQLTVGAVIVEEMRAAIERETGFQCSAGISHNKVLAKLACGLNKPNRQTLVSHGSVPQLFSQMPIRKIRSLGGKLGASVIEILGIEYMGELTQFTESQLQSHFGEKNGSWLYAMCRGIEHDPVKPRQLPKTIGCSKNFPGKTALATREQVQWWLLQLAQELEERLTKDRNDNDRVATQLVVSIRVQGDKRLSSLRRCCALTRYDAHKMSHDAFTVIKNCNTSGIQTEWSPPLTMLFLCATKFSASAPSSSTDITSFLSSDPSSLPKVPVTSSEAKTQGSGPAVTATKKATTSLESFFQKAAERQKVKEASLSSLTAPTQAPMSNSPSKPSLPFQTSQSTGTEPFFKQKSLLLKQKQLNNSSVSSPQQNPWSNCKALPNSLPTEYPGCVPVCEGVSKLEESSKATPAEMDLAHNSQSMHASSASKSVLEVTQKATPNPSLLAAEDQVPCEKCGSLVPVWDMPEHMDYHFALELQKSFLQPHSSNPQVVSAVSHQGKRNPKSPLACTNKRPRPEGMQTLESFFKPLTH
How it was run: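 Fluorescent replication assay: 50 nM final substrate added after a 15 min room-temperature compound preincubation with 10 nM enzyme. Signal taken at 0 min and again at 10 min.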
With `CCOC(=O)C1=C(C)Nc2nc(SCC)nn2C1c1ccc(OC)cc1` (stereo not given) the Potency was “inactive”. For `Cc1ccc(S(=O)(=O)N2CCOCC2)cc1C(=O)NCCN1C(=O)S/C(=C\c2ccccc2Cl)C1=O`, the Potency was inconclusive: 39.8 µM [inhibitor, partial curve, poor fit]. `CCOC(=O)CSC1=C(C#N)C(=O)NC2(CCCCC2)S1` was tested, and the Potency was “inactive”. For `O=[N+]([O-])c1cccc(/C=N/Nc2cc(Cl)nc(-c3ccccc3)n2)c1`, the Potency was inconclusive: 12.6 µM [inhibitor, partial curve, poor fit]. `Cc1coc2c1C(=O)C(=O)c1c-2ccc2c(C)cccc12` was tested, and the Potency was active: 28.2 µM. For `CCc1ccc(NS(=O)(=O)c2ccc3[nH]cc(C(=O)NCCCOC(C)C)c(=O)c3c2)cc1`, the Potency was inconclusive: 89.1 µM [inhibitor, single point]. With `COc1ccc(C(=O)Nc2cccc(-c3cnc4ccccc4n3)c2)cc1` the Potency was inconclusive: 28.2 µM [inhibitor, partial curve]. In the case of `COc1ccc(OC)c(Nc2nc3ccccc3n3cnnc23)c1`, the Potency is reported as inconclusive: 89.1 µM [inhibitor, partial curve, poor fit]. For `O=C(NCc1cccnc1)c1nn(-c2ccc(F)cc2)nc1CO`, the Potency was “inactive”. For `COc1ccccc1OC(C)C(=O)Nc1cccc(-c2nc3ccccc3o2)c1` (stereo not given), the Potency was inconclusive: 79.4 µM [inhibitor, single point]. `CN(C)c1ccc(NC(=O)CSc2nc3c(c(=O)[nH]2)CCCC3)cc1` was tested, and the Potency was active: 79.4 µM. `COc1ccc(S(=O)(=O)N(C)C)cc1NC(=O)c1ccc(OCC(=O)N2CCOCC2)c(OC)c1` was tested, and the Potency was “inactive”. In the case of `O=C1NCCCC2c3c(cc(Br)c(O)c3Br)OC12N1CCCCC1` (stereo not given), the Potency is reported as inconclusive: 31.6 µM [inhibitor, single point]. With `CCOC(=O)CC(=O)CSc1nc(C)nc2c1oc1ccccc12` the Potency was inconclusive: 39.8 µM [inhibitor, partial curve, poor fit]. For `O=C(c1ccc(S(=O)(=O)N2CCCC2)cc1)N1CCCCC1`, the Potency was “inactive”. For `COc1ccc2c(CSc3nc4nc(C)cc(C)n4n3)cc(=O)oc2c1`, the Potency was inconclusive: 22.4 µM [inhibitor, full curve, poor fit]. With `COC(=O)c1ccccc1S(=O)(=O)N1CCC(C(=O)OCc2ccc([N+](=O)[O-])cc2)CC1` the Potency was “inactive”. With `Cc1ccc(NC(=O)Cc2coc3ccc(C(C)C)cc23)cc1Cl` the Potency was inconclusive: 50.1 µM [inhibitor, partial curve, poor fit]. With `CN1C(C(=O)Nc2ccc(OC(F)(F)F)cc2)=CC(c2cccs2)=NS1(=O)=O` the Potency was inconclusive: 63.1 µM [inhibitor, partial curve, poor fit]. In the case of `COc1ccc2nc(Nc3nc(-c4cc5ccccc5oc4=O)cs3)sc2c1`, the Potency is reported as inconclusive: 2.24 µM [inhibitor, partial curve, poor fit]. In the case of `Cc1c(CCC(=O)NCCCn2ccnc2)c(=O)oc2cc3oc4c(c3cc12)CCCC4`, the Potency is reported as “inactive”. For `O=C(Nc1ccccc1Cl)c1sc2cccc(Cl)c2c1Cl`, the Potency was “inactive”. For `COc1ccc(NC(=O)c2oc3ccccc3c2NC(=O)COc2ccc(C(C)C)cc2)c(OC)c1`, the Potency was “inactive”. `CCN1C(=O)/C(=C\c2cn(CCC#N)nc2-c2ccc(F)cc2)SC1=S` was tested, and the Potency was “inactive”. In the case of `Cc1cccc(C)c1NC(=S)NC1CCCCC1`, the Potency is reported as “inactive”. In the case of `Cc1cc(SCC(=O)N/N=C/c2ccc(O)c(O)c2O)c(C)cc1Br`, the Potency is reported as inconclusive: 17.8 µM [inhibitor, partial curve, poor fit]. With `O=C1NN(c2cccc(Br)c2)C(=O)/C1=C\c1ccc(O)cc1` the Potency was inconclusive: 70.8 µM [inhibitor, partial curve, poor fit]. With `COc1ccc2nc(Nc3nc(CSc4nnnn4-c4ccccc4)cc(=O)[nH]3)nc(C)c2c1` the Potency was inconclusive: 4.47 µM [inhibitor, full curve]. With `CC(C)c1ccc(COC(=O)CN2C(=O)NC3(CCCCC3C)C2=O)cc1` (stereo not given) the Potency was inconclusive: 89.1 µM [inhibitor, partial curve, poor fit]. For `CC(C)N(C(=O)CN(C#N)c1nc(N(C)C)nc(N(C)C)n1)c1ccccc1`, the Potency was inconclusive: 39.8 µM [inhibitor, single point]. `Cc1cc(=O)oc2cc(OCC(=O)N/N=C/c3ccccc3O)ccc12` was tested, and the Potency was active: 17.8 µM. For `CC1=NN2C(=N)/C(=C\c3cc(C)n(-c4cccc(C)c4)c3C)C(=O)N=C2S1`, the Potency was “inactive”. With `CCN(CC)S(=O)(=O)c1ccc(C(=O)OCC(=O)NCc2ccco2)cc1` the Potency was inconclusive: 89.1 µM [inhibitor, partial curve, poor fit]. `CC(NC(=O)Nc1cccc([N+](=O)[O-])c1)(C(F)(F)F)C(F)(F)F` was tested, and the Potency was inconclusive: 70.8 µM [inhibitor, partial curve, poor fit]. `COc1ccc(NC(=O)Cn2cnc3sc(C)c(S(=O)(=O)N4CCOCC4)c3c2=O)cc1Cl` was tested, and the Potency was “inactive”. With `OC[C@@H](O)[C@H](O)C(/C=N/Nc1ccccc1)=N\Nc1ccccc1` the Potency was “inactive”. With `CC(=O)c1ccc(NC(=O)c2ccc3snnc3c2)cc1` the Potency was inconclusive: 31.6 µM [inhibitor, single point]. With `C=CCC[C@@H](Cc1ccc(F)cc1)C(=O)OC[C@@H]1CCCN1C(=O)[C@@H](CC=C)CC(=O)N[C@@H](CO)Cc1ccccc1` the Potency was inconclusive: 89.1 µM [inhibitor, partial curve, poor fit]. For `CS(=O)(=O)c1sc2nc(-c3cccs3)cc(-c3ccccc3)c2c1N`, the Potency was “inactive”. In the case of `CC1(C)C(=O)C2(CCCCC2)C(=O)OC1C(=O)c1ccccc1` (stereo not given), the Potency is reported as inconclusive: 79.4 µM [inhibitor, single point]. With `O=[N+]([O-])c1cc(Cc2ccccc2)cc(C=Nc2ccc(N3CCOCC3)cc2)c1O` the Potency was inconclusive: 28.2 µM [inhibitor, full curve, poor fit]. With `Oc1cc(CNC2CCCCC2)c(O)cc1CNC1CCCCC1` the Potency was inconclusive: 39.8 µM [inhibitor, partial curve]. `NC(=O)CC(NC(=O)c1cccc(Br)c1)c1ccc(N2CCCCCC2)c([N+](=O)[O-])c1` (stereo not given) was tested, and the Potency was inconclusive: 28.2 µM [inhibitor, partial curve, poor fit]. `O=C(Nc1ccc(Br)cc1F)c1ccc2c(c1)N(Cc1ccccc1)C(=O)CS2=O` (stereo not given) was tested, and the Potency was inconclusive: 100 µM [inhibitor, single point]. For `CC(C)c1ccc(NC(=O)c2cc(S(=O)(=O)N(C)C3CCCCC3)ccc2F)cc1`, the Potency was inconclusive: 100 µM [inhibitor, partial curve, poor fit]. With `C[C@@H](NC(=O)/C(C#N)=C/c1ccc(O)c(O)c1)c1ccccc1` the Potency was “inactive and active: 14.1 µM”. For `O=C(CCn1c(=O)c2cccn2c2cccnc21)Nc1ccccc1C(F)(F)F`, the Potency was inconclusive: 35.5 µM [inhibitor, partial curve, poor fit]. With `COc1ccc(C(=O)N/N=C/c2sc(N3CCOCC3)nc2-c2ccccc2)cc1OC` the Potency was inconclusive: 10 µM [inhibitor, full curve, poor fit]. `O=C(COC(=O)C1=COCCO1)NCc1ccc(Cl)cc1Cl` was tested, and the Potency was “inactive”. With `CC(=O)Nc1nc(C=C(Cl)Cl)cs1` the Potency was inconclusive: 1.12 µM [inhibitor, full curve, poor fit]. With `CCCOc1ccc(-c2cccc(NS(=O)(=O)c3ccccc3)c2)nn1` the Potency was inconclusive: 35.5 µM [inhibitor, full curve]. For `Cc1ccc(S(=O)(=O)N(CC(=O)N/N=C/c2cccc(Cl)c2)c2cccc3cccnc23)cc1`, the Potency was inconclusive: 11.2 µM [inhibitor, partial curve]. For `CSc1nc(N(CCO)CCO)c2sc3nc(-c4ccco4)c4c(c3c2n1)CCC4`, the Potency was active: 1.12 µM. `Cc1ccc(OCC(=O)NNC(=O)c2cc3ccccc3o2)cc1C` was tested, and the Potency was inconclusive: 22.4 µM [inhibitor, single point]. With `CCOC(=O)/C=C/C(=O)Nc1ccc(S(=O)(=O)Nc2cc(OC)nc(OC)n2)cc1` the Potency was inconclusive: 15.8 µM [inhibitor, full curve, poor fit]. With `CSc1nc(Nc2ccc(F)cc2)cc(-c2ccccc2)n1` the Potency was inconclusive: 89.1 µM [inhibitor, partial curve, poor fit]. For `Cc1c(CC(=O)NCCCCCC(=O)O)c(=O)oc2cc3occ(-c4ccccc4)c3cc12`, the Potency was inconclusive: 14.1 µM [inhibitor, full curve, poor fit]. With `N#Cc1c(NC(=O)CSc2nnc(-c3ccco3)n2-c2ccccc2)sc2c1CCC2` the Potency was inconclusive: 10 µM [inhibitor, partial curve]. For `COc1ccc(C)cc1NC(=O)Nc1ccc(Br)cn1`, the Potency was inconclusive: 20 µM [inhibitor, partial curve]. With `Cc1ccc(NC(=O)CN2C(=O)N/C(=C/c3ccccc3OCc3cccc(C(=O)O)c3)C2=O)cc1` the Potency was active: 25.1 µM. For `C/C(=N\NC(=O)c1cc(C)nc2ccccc12)c1ccco1`, the Potency was “inactive”. In the case of `C/C(=N\Nc1cc(N2CCOCC2)ncn1)c1ccc(O)cc1`, the Potency is reported as inconclusive: 11.2 µM [inhibitor, full curve, poor fit]. `COc1cc(C(=O)NCc2nnc(SCC(=O)c3ccc(Cl)cc3)o2)cc(OC)c1OC` was tested, and the Potency was inconclusive: 89.1 µM [inhibitor, partial curve, poor fit]. For `CCOc1ccccc1C(=O)NCc1ccco1`, the Potency was inconclusive: 14.1 µM [inhibitor, partial curve, poor fit]. In the case of `COc1ccc(NC(=O)Cn2cnc3c(cnn3-c3ccc(C)c(C)c3)c2=O)c(OC)c1`, the Potency is reported as inconclusive: 15.8 µM [inhibitor, partial curve, poor fit].
